Source: patent US11207320B2, “Compositions and methods for cancer expressing PDE3A or SLFN12” (The Broad Institute, Inc., priority 2015, dated 2021)
The source gives many values for each of these; only a part stands here.

System: 766 cancer cell lines
Assay: Large-scale cell-line viability measurements (766 cancer cell lines, 72 h, AUC)
Type: cell-based, human
Protocol: Cell lines were treated for 72 hours with concentrations ranging from 66.4 μM-2 nM in 2-fold step dilutions.
To characterize cellular sensitivity to DNMDP further, 766 genomically characterized cancer cell lines were screened for DMNDP sensitivity at concentrations ranging from 66.4 μM to 2 nM in 2-fold dilution steps for 72 hours. From these cell lines, 22 cell lines were categorized as sensitive with a robust Z-score lower than −4, which represented multiple lineages including multiple melanoma cell lines, amongst others (Table 1).
The sensitivity of […] cancer cell lines (CCLs) was measured drawn from 23 different lineages to DNMDP. Each cell line was plated in its preferred media in white opaque 1536-plates at a density of 500 cells/well. After incubating overnight, DNMDP was added by acoustic transfer at 16 concentrations ranging from 66.4 μM-2 nM in 2-fold steps in duplicate (Labcyte Echo 555, Labcyte Inc., Sunnyvale, Calif.). After 72 hours treatment, cellular ATP levels were measured as a surrogate for viability (CELLTITERGLO®, Promega Corporation, Madison, Wis.) according to manufacturer's protocols using a ViewLux Microplate Imager (PerkinElmer, Waltham, Mass.) and normalized to background (media-only) and vehicle (DMSO)-treated control wells.
Concentration response curves were fit using nonlinear fits to 2- or 3-parameter sigmoid functions through all 16 concentrations with the low-concentration asymptote set to the DMSO-normalized value, and an optimal 8-point dose curve spanning the range of compound-sensitivity was identified. The area under the 8-point dose curve (AUC) was computed by numeric integration as a metric for sensitivity for further analysis. Similar sensitivity measurements have been obtained for a collection of 480 other compounds, enabling analyses that identify cell lines responding uniquely to DNMDP (see Broad Institute Cancer Therapeutics Response Portal, a dataset to identify comprehensively relationships between genetic and lineage features of human cancer cell lines and small-molecule sensitivities for complete list of compounds).

[1] = cell line TCCSUP (URINARY TRACT)
[2] = cell line TE441T, SOFT TISSUE, 72 hours
[3] = cell line TF1 (HAEMATOPOIETIC AND LYMPHOID TISSUE)
[4] = cell line TM31 (CENTRAL NERVOUS SYSTEM)
[5] = cell line TOLEDO (HAEMATOPOIETIC AND LYMPHOID TISSUE)
[6] = cell line U87MG (CENTRAL NERVOUS SYSTEM)
[7] = cell line U251MG (CENTRAL NERVOUS SYSTEM)
[8] = cell line UMUC3 (URINARY TRACT)
[9] = cell line WSUDLCL2 (HAEMATOPOIETIC AND LYMPHOID TISSUE)
[10] = cell line X42MGBA (CENTRAL NERVOUS SYSTEM)
[11] = cell line X253J (URINARY TRACT)
[12] = cell line X253JBV (URINARY TRACT)
[13] = cell line X639V (URINARY TRACT)
[14] = cell line X5637, URINARY TRACT, 72 hours
[15] = cell line YD15 (SALIVARY GLAND)
[16] = cell line YD38 (UPPER AERODIGESTIVE TRACT)
[17] = cell line YKG1, CENTRAL NERVOUS SYSTEM, 72 hours

Structure (SMILES): CCN(CC)c1ccc(C2=NNC(=O)CC2C)cc1[N+](=O)[O-] (stereo not drawn) [DNMDP, 6-(4-(diethylamino)-3-nitrophenyl)-5-methyl-4,5-dihydropyridazin-3(2H)-one]
- DNMDP AUC [1]: 6.7056
- Robust Z-score [1]: 0.07447
- DNMDP AUC (cell line TE1 (OESOPHAGUS)): 6.6158
- Robust Z-score (cell line TE1 (OESOPHAGUS)): −0.01979
- DNMDP AUC (cell line TE4 (OESOPHAGUS)): 6.707
- Robust Z-score (cell line TE4 (OESOPHAGUS)): 0.07594
- DNMDP AUC (cell line TE5 (OESOPHAGUS)): 6.6355
- Robust Z-score (cell line TE5 (OESOPHAGUS)): 0.0008922
- DNMDP AUC (cell line TE6 (OESOPHAGUS)): 6.5328
- Robust Z-score (cell line TE6 (OESOPHAGUS)): −0.1069
- DNMDP AUC (cell line TE9 (OESOPHAGUS)): 6.8154
- Robust Z-score (cell line TE9 (OESOPHAGUS)): 0.1897
- DNMDP AUC (cell line TE10 (OESOPHAGUS)): 6.6127
- Robust Z-score (cell line TE10 (OESOPHAGUS)): −0.02304
- DNMDP AUC (cell line TE11 (OESOPHAGUS)): 6.7063
- Robust Z-score (cell line TE11 (OESOPHAGUS)): 0.07521
- DNMDP AUC (cell line TE14 (OESOPHAGUS)): 6.6652
- Robust Z-score (cell line TE14 (OESOPHAGUS)): 0.03207
- DNMDP AUC [2]: 7.1772
- Robust Z-score [2]: 0.5695
- DNMDP AUC (cell line TE617T (SOFT TISSUE)): 6.782
- Robust Z-score (cell line TE617T (SOFT TISSUE)): 0.1547
- DNMDP AUC [3]: 6.9682
- Robust Z-score [3]: 0.3501
- DNMDP AUC [4]: 6.6885
- Robust Z-score [4]: 0.05652
- DNMDP AUC [5]: 6.5926
- Robust Z-score [5]: −0.04414
- DNMDP AUC (cell line TT2609C02 (THYROID)): 6.7014
- Robust Z-score (cell line TT2609C02 (THYROID)): 0.07006
- DNMDP AUC (cell line TT (THYROID)): 7.0183
- Robust Z-score (cell line TT (THYROID)): 0.4027
- DNMDP AUC (cell line TUHR4TKB (KIDNEY)): 7.0861
- Robust Z-score (cell line TUHR4TKB (KIDNEY)): 0.4739
- DNMDP AUC (cell line TYKNU (OVARY)): 6.6296
- Robust Z-score (cell line TYKNU (OVARY)): −0.005301
- DNMDP AUC (cell line U2OS, BONE, 72 hours): 7.3013
- Robust Z-score (cell line U2OS, BONE, 72 hours): 0.6997
- DNMDP AUC [6]: 6.7949
- Robust Z-score [6]: 0.1682
- DNMDP AUC [7]: 7.091
- Robust Z-score [7]: 0.479
- DNMDP AUC [8]: 6.6662
- Robust Z-score [8]: 0.03312
- DNMDP AUC (cell line VMRCLCD (LUNG)): 6.6718
- Robust Z-score (cell line VMRCLCD (LUNG)): 0.03899
- DNMDP AUC (cell line VMRCRCW (KIDNEY)): 6.9222
- Robust Z-score (cell line VMRCRCW (KIDNEY)): 0.3018
- DNMDP AUC (cell line VMRCRCZ (KIDNEY)): 6.6107
- Robust Z-score (cell line VMRCRCZ (KIDNEY)): −0.02514
- DNMDP AUC (cell line WM115 (SKIN)): 6.8396
- Robust Z-score (cell line WM115 (SKIN)): 0.2151
- DNMDP AUC (cell line WM2664 (SKIN)): 6.8521
- Robust Z-score (cell line WM2664 (SKIN)): 0.2282
- DNMDP AUC [9]: 6.6801
- Robust Z-score [9]: 0.04771
- DNMDP AUC (cell line X22RV1 (PROSTATE)): 6.9813
- Robust Z-score (cell line X22RV1 (PROSTATE)): 0.3639
- DNMDP AUC [10]: 6.5397
- Robust Z-score [10]: −0.09966
- DNMDP AUC [11]: 6.8153
- Robust Z-score [11]: 0.1896
- DNMDP AUC [12]: 6.6694
- Robust Z-score [12]: 0.03648
- DNMDP AUC [13]: 6.6635
- Robust Z-score [13]: 0.03028
- DNMDP AUC (cell line X769P (KIDNEY)): 6.7486
- Robust Z-score (cell line X769P (KIDNEY)): 0.1196
- DNMDP AUC (cell line X786O (KIDNEY)): 6.9057
- Robust Z-score (cell line X786O (KIDNEY)): 0.2845
- DNMDP AUC [14]: 7.5183
- Robust Z-score [14]: 0.9275
- DNMDP AUC (cell line X2313287 (STOMACH)): 6.6886
- Robust Z-score (cell line X2313287 (STOMACH)): 0.05663
- DNMDP AUC (cell line YAPC (PANCREAS)): 6.6485
- Robust Z-score (cell line YAPC (PANCREAS)): 0.01454
- DNMDP AUC [15]: 6.8858
- Robust Z-score [15]: 0.2636
- DNMDP AUC [16]: 7.06
- Robust Z-score [16]: 0.4465
- DNMDP AUC [17]: 7.2376
- Robust Z-score [17]: 0.6329
- DNMDP AUC (cell line ZR751 (BREAST)): 7.054
- Robust Z-score (cell line ZR751 (BREAST)): 0.4402
